Results are given in words; binding and its absence hold for the method and conditions named. Some entries that bind do so weakly or less than the wild type.
Experiments:
Elp3-TAP (S. cerevisiae) [1] = target: T1, Elp3-TAP (S. cerevisiae) (UniProt Q02908); assay: tandem affinity purification; Elp3-TAP, Elp5-TAP or Cac2-TAP purified from equal amounts of yeast cells (wild type; Elp3-TAP also from cac1Δ), co-purified proteins detected by Ponceau S staining and Western blot with antibodies against CBP and PCNA
T1 sequence: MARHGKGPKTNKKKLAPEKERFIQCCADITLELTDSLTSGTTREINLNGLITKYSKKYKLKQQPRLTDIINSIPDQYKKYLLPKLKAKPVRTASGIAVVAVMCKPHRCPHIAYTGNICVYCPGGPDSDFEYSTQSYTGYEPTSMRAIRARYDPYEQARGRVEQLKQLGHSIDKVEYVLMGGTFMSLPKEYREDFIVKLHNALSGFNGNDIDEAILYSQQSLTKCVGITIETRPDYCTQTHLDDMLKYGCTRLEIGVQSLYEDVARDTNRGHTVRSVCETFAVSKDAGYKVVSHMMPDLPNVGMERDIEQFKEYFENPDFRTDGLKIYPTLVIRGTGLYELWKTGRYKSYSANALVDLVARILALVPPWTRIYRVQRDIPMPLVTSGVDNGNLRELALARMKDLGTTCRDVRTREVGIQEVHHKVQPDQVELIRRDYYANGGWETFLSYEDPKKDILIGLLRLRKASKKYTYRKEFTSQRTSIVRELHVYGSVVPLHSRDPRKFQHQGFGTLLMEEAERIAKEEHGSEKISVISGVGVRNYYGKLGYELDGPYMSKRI

Amino acid sequences for entries named in this document (tags omitted).
UniProt P15873: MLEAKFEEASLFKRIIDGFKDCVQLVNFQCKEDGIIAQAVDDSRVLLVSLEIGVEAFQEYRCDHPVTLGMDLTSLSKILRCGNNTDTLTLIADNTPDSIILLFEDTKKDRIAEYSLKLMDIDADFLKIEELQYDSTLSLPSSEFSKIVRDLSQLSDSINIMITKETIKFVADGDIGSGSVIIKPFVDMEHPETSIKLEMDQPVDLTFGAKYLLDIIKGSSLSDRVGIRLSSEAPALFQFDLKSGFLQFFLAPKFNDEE

Elp5-TAP (S. cerevisiae) [2] = target: T2, Elp5-TAP (S. cerevisiae) (UniProt P38874); assay: as above
T2 sequence: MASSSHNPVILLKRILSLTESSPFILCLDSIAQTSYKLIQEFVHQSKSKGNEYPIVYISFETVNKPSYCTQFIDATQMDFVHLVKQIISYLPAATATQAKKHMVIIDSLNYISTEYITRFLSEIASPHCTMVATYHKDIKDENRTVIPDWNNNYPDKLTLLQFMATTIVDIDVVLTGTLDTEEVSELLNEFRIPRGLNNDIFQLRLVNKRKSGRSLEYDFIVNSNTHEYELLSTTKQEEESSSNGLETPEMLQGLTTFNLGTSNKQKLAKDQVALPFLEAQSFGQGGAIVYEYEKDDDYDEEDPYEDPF

Elp3-TAP (S. cerevisiae) [3] = target: T1, Elp3-TAP (S. cerevisiae); assay: tandem affinity purification; TAP-tagged subunit purified from yeast lysate (IgG sepharose, TEV elution, calmodulin beads; buffer A 25 mM Tris pH 8.0, 100 mM NaCl), co-purified proteins on SDS-PAGE, silver staining; strains: wild type, elp3Δ, or elp3Δ with plasmids for wild type Elp3 or elp3 mutants
Elp5-TAP (S. cerevisiae) [4] = target: T2, Elp5-TAP (S. cerevisiae); assay: as above
Elp1-TAP (S. cerevisiae) = target: T3, Elp1-TAP (S. cerevisiae) (UniProt Q06706); assay: as above
T3 sequence: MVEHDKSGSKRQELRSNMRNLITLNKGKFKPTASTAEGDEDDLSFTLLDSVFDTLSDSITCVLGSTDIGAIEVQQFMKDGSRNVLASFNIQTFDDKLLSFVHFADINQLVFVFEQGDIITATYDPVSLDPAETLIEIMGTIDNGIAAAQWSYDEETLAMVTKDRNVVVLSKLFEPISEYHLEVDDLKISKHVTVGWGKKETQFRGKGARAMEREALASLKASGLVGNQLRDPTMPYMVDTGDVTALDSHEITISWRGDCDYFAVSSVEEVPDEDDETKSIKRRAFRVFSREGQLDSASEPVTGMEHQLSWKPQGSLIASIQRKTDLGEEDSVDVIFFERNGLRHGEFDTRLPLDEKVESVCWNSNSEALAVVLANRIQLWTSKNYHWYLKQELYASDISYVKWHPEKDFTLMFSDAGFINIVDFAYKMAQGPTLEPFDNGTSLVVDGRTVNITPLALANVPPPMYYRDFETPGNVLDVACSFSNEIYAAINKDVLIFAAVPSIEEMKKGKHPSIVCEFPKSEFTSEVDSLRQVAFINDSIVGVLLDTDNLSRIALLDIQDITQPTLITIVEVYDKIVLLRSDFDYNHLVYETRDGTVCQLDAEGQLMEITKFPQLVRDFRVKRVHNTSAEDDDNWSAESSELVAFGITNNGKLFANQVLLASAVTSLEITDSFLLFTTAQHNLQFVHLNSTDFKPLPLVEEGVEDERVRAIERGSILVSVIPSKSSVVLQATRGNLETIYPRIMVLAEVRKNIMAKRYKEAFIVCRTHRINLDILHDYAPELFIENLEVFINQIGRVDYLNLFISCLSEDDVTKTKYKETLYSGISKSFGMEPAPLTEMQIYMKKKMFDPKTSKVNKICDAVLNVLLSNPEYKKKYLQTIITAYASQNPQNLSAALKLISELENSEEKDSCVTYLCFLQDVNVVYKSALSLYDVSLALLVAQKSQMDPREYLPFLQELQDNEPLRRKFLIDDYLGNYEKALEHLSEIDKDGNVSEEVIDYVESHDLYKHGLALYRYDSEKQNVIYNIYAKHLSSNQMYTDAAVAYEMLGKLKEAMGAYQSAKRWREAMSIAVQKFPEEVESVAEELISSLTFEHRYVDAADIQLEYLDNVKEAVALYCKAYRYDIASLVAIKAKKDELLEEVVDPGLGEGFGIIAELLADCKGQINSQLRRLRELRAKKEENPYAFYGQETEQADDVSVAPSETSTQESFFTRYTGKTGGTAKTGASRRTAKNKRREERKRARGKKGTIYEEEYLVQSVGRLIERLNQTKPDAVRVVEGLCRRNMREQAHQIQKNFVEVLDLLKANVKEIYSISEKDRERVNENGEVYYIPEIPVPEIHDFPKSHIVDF

## proliferating cell nuclear antigen (PCNA), endogenous in yeast (from UniProt P15873 1-258)
Elp3-TAP (S. cerevisiae) [1]
  binding: binds
Elp5-TAP (S. cerevisiae) [2]
  binding: binds

B1: Elp4 (protein, UniProt Q02884 1-456)
chain: MSFRKRGEILNDRGSGLRGPLLRGPPRTSSTPLRTGNRRAPGNVPLSDTTARLKKLNIADESKTKMGLDSSHVGVRPSPATSQPTTSTGSADLDSILGHMGLPLGNSVLVEEQSTTEFHSILGKLFAAQGIVHNRISDSSADKTRNGDTHVIVLSLNQMFAKELPGIYKGSRKQMKKNLISEEESKVTVQNLNETQRSTPSRYKDLKIAWKYKLADEKRLGSPDRDDIQQNSEYKDYNHQFDITTRLMPAPIASELTFIAPTQPVSTILSQIEQTIKRNDKKLIRIVIPSLLHPAMYPPKMFESSEIIGLMHGVRSLVKKYYERVVLFASISIDIITPPLLVLLRNMFDSVINLEPFNQEMTEFLERVYKSQPGKIQHGLVHILKLPVFTDRGEMRVLKSEWAFKNGRKKFEIEQWGIPVDDAEGSAASEQSHSHSHSDEISHNIPAKKTKISLDY
Elp3-TAP (S. cerevisiae) [3]
  binding: binds
Elp5-TAP (S. cerevisiae) [4]
  binding: binds
Elp1-TAP (S. cerevisiae)
  binding: binds

B2: Elp5 (protein, UniProt P38874 1-309)
chain: MASSSHNPVILLKRILSLTESSPFILCLDSIAQTSYKLIQEFVHQSKSKGNEYPIVYISFETVNKPSYCTQFIDATQMDFVHLVKQIISYLPAATATQAKKHMVIIDSLNYISTEYITRFLSEIASPHCTMVATYHKDIKDENRTVIPDWNNNYPDKLTLLQFMATTIVDIDVVLTGTLDTEEVSELLNEFRIPRGLNNDIFQLRLVNKRKSGRSLEYDFIVNSNTHEYELLSTTKQEEESSSNGLETPEMLQGLTTFNLGTSNKQKLAKDQVALPFLEAQSFGQGGAIVYEYEKDDDYDEEDPYEDPF
Elp3-TAP (S. cerevisiae) [3]
  binding: binds
Elp1-TAP (S. cerevisiae)
  binding: binds

B3: Elp6 (protein, UniProt Q04868 1-273)
chain: MGSVQRQDLVLFSDQSVLPAHFFQDSNSHNLFFITHQSCTQPLWMINALVETHVLGSPSSLNESSSSMLPSSTRSHAVLASFIHEQNYFTNSLNKLKIPSNNYNVLDFLSDFIVNNIHNKPRDKILSDVLAKFSAAIQNNPTDTIVIIEQPELLLSLVSGLTCSELNNKFITPLLRQCKVLIIVSNSDIFNIDEYDASVHSSNLQNFYKSSFIKSMINLNLNPLKTGFAKDVTGSLHVCRGGAPIATSNTSLHVVENEYLYLNEKESTKLFYR
Elp3-TAP (S. cerevisiae) [3]
  binding: binds
Elp5-TAP (S. cerevisiae) [4]
  binding: binds
Elp1-TAP (S. cerevisiae)
  binding: binds
